Measured values: PubChem BioAssay AID504332 (National Center for Advancing Translational Sciences (NCATS), 2011)
Out of some 350,000 compounds screened, about 31,000 (8.9%) were called active. Inconclusive results, whose numbers are uncertain, are shown with a selection of clear calls. Calls follow the shape of the dose curve; as a rule, active = well fitted inhibition curve with a large enough effect; inconclusive = small, poorly fitted or top-dose-only effect; inactive = no such curve, though single readings can be large or run the other way. Where the call is inconclusive, the potency comes from a doubtful curve fit. Some compounds were tested as several samples or in several runs, with calls that do not always agree.

Molecular target: Histone-lysine N-methyltransferase EHMT2 (Homo sapiens) (UniProt Q96KQ7)
Assay: qHTS Assay for Inhibitors of Histone Lysine Methyltransferase G9a; also: nearly all actives have a fitted effect of over 75% in size
Conditions: G9a H3K9 monomethylation, AlphaScreen, 2 h; activity, negative = inhibition: at 59 µM (top of the series) unless noted
In short: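 Enzyme 20 nM + cpd, 15 min RT; add b-H3K9 pep 500 nM / SAM 20 uM; 2 h RT; anti-H3K9me1 Ab 0.5 ug/mL + SA donor / anti-rabbit acceptor beads 20 ug/mL each, 10 min; AlphaScreen read.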
% is scaled to controls: 0 for no effect and ±100 for the full control effect; potency is read from the fitted curve at half-maximal effect; tags tell the direction and shape of the fitted curve.

Chain of UniProt Q96KQ7 (Q96KQ7 whole entry, looked up): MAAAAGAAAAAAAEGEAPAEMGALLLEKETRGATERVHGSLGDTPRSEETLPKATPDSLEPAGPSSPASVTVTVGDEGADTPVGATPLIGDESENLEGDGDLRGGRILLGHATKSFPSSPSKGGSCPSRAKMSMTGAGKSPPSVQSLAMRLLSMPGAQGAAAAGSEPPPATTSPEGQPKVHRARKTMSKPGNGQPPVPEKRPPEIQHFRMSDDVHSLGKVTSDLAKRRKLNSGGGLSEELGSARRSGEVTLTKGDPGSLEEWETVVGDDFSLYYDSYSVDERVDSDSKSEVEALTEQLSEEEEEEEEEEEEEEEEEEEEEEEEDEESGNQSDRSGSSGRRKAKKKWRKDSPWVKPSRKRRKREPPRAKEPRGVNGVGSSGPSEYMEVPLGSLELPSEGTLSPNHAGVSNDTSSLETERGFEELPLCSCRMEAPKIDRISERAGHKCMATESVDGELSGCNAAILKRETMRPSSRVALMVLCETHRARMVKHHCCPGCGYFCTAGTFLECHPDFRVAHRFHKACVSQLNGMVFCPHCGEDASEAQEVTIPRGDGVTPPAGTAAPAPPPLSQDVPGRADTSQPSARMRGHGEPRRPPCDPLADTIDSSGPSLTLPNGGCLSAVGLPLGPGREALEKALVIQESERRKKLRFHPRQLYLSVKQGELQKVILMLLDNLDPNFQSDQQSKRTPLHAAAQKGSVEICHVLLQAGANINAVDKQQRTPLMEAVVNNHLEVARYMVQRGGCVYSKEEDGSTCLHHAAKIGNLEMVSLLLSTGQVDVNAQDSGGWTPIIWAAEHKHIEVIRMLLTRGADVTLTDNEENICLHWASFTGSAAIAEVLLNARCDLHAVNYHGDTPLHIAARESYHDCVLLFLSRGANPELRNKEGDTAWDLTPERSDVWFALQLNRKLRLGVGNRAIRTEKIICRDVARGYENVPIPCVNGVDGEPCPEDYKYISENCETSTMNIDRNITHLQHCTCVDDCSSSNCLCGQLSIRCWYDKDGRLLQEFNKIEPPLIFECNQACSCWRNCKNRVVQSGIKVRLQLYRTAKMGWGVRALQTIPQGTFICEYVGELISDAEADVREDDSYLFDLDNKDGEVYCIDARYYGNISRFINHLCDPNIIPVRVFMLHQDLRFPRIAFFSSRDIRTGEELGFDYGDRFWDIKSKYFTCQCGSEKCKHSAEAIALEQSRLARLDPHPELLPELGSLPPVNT

SMILES | activity, negative = inhibition | Potency
O=C(Nc1ccon1)c1ccc(N2CCCCC2)c([N+](=O)[O-])c1 | inactive: -45.1% [at 102 µM] | 
C/C=C\C=C/C(=O)Nc1cccc(C2=NOC3(C2)C[C@@H](C(N)=O)N(C(=O)/C=C/C=C\C)C3)c1 (stereo partly drawn) | inconclusive: -97.9% [inhibitor] [at 12.7 µM] | 
CCOC(=O)N1CCC(NC(=O)CC(NS(=O)(=O)c2ccc(Cl)cc2)c2ccco2)CC1 (stereo not drawn) |  | inconclusive: 6.31 µM [inhibitor, single point]
NS(=O)(=O)c1ccc(N2CCOCC2)c(C(=O)NCCCSc2ccccc2)c1 | inactive: 12.3% [at 2.33 µM] | 
Cc1c(C(=O)NC(Cc2ccccc2)c2nc3ccccc3[nH]2)cccc1[N+](=O)[O-] (stereo not drawn) |  | inconclusive: 79.4 µM [inhibitor, single point]
COc1ccc(N2CCN(C(=O)CC(NC(N)=O)c3cccc(Oc4ccccc4)c3)CC2)cc1 (stereo not drawn) |  | inconclusive: 2.51 µM [inhibitor, partial curve, poor fit]
CCSc1nc2c(c(=O)[nH]1)C(C(C)C)C(C#N)=C(N)O2 (stereo not drawn) |  | inconclusive: 100 µM [inhibitor, single point]
CC1=C(C#N)c2nc(N)c(C#N)c(C)c2/C1=C\c1ccc(OCC(=O)O)c(Cl)c1 |  | active: 22.4 µM
COc1ccc(CCNC(=O)COC(=O)c2ccc(Br)o2)cc1 |  | inconclusive: 89.1 µM [inhibitor, single point]
Fc1ccccc1N1CCN(c2ncnc3onc(-c4cccc(Cl)c4)c23)CC1 | inactive: -0.989% | 
NC(=S)Cc1ccc(Cl)cc1Cl | inconclusive: -52.4% [inhibitor] | 
CCOC(=O)c1[nH]cnc1C(=O)NC1CCCCC1 |  | inconclusive: 22.4 µM [inhibitor, partial curve, poor fit]
CCC(C)N(C(=O)Cn1nnc(-c2ccc(Cl)cc2)n1)C1CCS(=O)(=O)C1 (stereo not drawn) |  | inconclusive: 50.1 µM [inhibitor, partial curve, poor fit]
CCOC(=O)CSc1nc2c(sc(=S)n2Cc2ccco2)c(=O)n1-c1ccccc1 | inactive: 10.2% [at 0.501 µM] | 
c1ccc(COc2ccccc2CNCc2cccnc2)cc1 |  | inconclusive: 39.8 µM [inhibitor, single point]
CCOc1cc(N2CCOCC2)c(OCC)cc1NC(=O)COC(=O)/C=C/c1ccc(OC(F)F)cc1 |  | inconclusive: 35.5 µM [inhibitor, partial curve]
COCC(=O)n1nc(-c2ccccc2)nc1NCc1ccccc1 |  | inconclusive: 44.7 µM [inhibitor, partial curve]
CCOc1ccc(CN2CCSCC2)cc1 |  | inconclusive: 20 µM [inhibitor, single point]
S=C(c1ccc(-c2cc(Cl)ccc2Cl)o1)N1CCCCC1 |  | inconclusive: 2.51 µM [inhibitor, full curve, poor fit]
COc1ccc(-n2c(SCC(=O)NC3CCCCC3)nc3c([nH]c4ccccc43)c2=O)cc1 | inactive: 13.1% | 
Cn1c(=O)c2c(-c3ccccc3Br)n(Cc3ccccc3)cc2n(C)c1=O |  | inconclusive: 25.1 µM [inhibitor, partial curve, poor fit]
Cc1cccc2cc(CN(CC3CCCO3)S(=O)(=O)c3ccccc3)c3nnnn3c12 (stereo not drawn) | inactive: 9.92% | 
CCn1c(C)cc(/C=C2/NC(=O)N(CC(=O)Nc3cccc(C)c3)C2=O)c1C |  | active: 44.7 µM

SMILES | activity, negative = inhibition | Potency
COc1ccc(N(CC(=O)Nc2cc(C)ccc2C)S(=O)(=O)c2c(C)nn(C)c2C)cc1 |  | inconclusive: 89.1 µM [inhibitor, single point]
CC(=O)Nc1ccc(Nc2ccc(S(=O)(=O)C(F)(F)F)cc2[N+](=O)[O-])cc1 |  | inconclusive: 50.1 µM [inhibitor, partial curve, poor fit]
COc1ccccc1N(CC(=O)NC1CCCCC1)S(=O)(=O)c1ccccc1 | inactive: -14.4% [at 102 µM] | 
CCCn1c(C(C)NS(=O)(=O)c2ccccc2)n[nH]c1=S (stereo not drawn) |  | active: 20 µM
CCOC(=O)c1ccc(NC(=O)Nc2ccccn2)cc1 |  | inconclusive: 89.1 µM [inhibitor, single point]
COc1ccc(Cl)cc1NC(=S)NNC(=O)c1cccnc1 |  | active: 25.1 µM
S=C(NCc1ccco1)Nc1ccc(N2CCOCC2)cc1 |  | inconclusive: 25.1 µM [inhibitor, single point]
N[C@@H](CO)c1nnc([C@H](CC(=O)O)NC(=O)C2CCNCC2)o1 | inconclusive: -92.6% [inhibitor] | 
CCOC(=O)Cn1nnnc1CN(Cc1cccs1)Cc1cc2cc(C)cc(C)c2[nH]c1=O |  | inconclusive: 44.7 µM [inhibitor, partial curve]
CC[C@]1(O)C[C@@H]2CN(CCc3c([nH]c4ccccc34)[C@@](C(=O)OC)(c3cc4c(cc3OC)N(C)C3[C@]45CCN4CC=C[C@](CC)(C45)[C@@H](OC(C)=O)[C@]3(O)C(=O)OC)C2)C1 (stereo partly drawn) |  | active: 14.1 µM
Cc1[nH]c2ccccc2c1/C=N/NC(=S)NC(C)C | inconclusive: -73.7% [inhibitor] | 
COc1ccc(C2CC(c3ccccc3)=NN2C(=O)COC(=O)c2cc(S(=O)(=O)N3CCOCC3)ccc2Cl)cc1 (stereo not drawn) |  | inconclusive: 5.01 µM [inhibitor, full curve, poor fit]
Cc1cnn(C(=O)c2cc(-c3ccccn3)nc3ccc(Cl)cc23)c1 | inconclusive: -73.2% [inhibitor] | 
Cc1cccnc1NC(=O)CCCN1C(=O)c2ccccc2C1=O |  | inconclusive: 1.12 µM [inhibitor, partial curve, poor fit]
CCOc1ccc(OCCn2ccnc2)cc1 |  | active: 10 µM
CC(C)(C)c1cc(CN2CCC(O)CC2)cc(C(C)(C)C)c1O |  | active: 7.94 µM
COc1cc(NC(=S)NC(=O)c2ccccc2F)ccc1NC(=O)c1ccco1 |  | active: 7.94 µM
N=c1c2c(n(Cc3ccc(F)cc3)c3c1CCC3)CCC2 |  | inconclusive: 50.1 µM [inhibitor, partial curve, poor fit]
Cc1ccc(-c2csc3nc(CN(C)Cc4ccccc4)[nH]c(=O)c23)cc1 |  | inconclusive: 50.1 µM [inhibitor, partial curve, poor fit]
O=C1CN=C(Nc2ccc(Cl)cc2)N1c1ccccc1 |  | inconclusive: 79.4 µM [inhibitor, single point]
Cc1ccc(NC(=S)N(CCCN2CCOCC2)Cc2ccccn2)cc1Cl | inactive: 35.5% | 
CCOC(=O)c1c(CN2CCCCC2C)oc2ccc(OC)cc12 (stereo not drawn) |  | inconclusive: 50.1 µM [inhibitor, partial curve]
Cc1cc(C)c(C(=O)N2CCCC(CNC(=O)C3(c4ccc(Cl)cc4)CC3)C2)c(=O)[nH]1 (stereo not drawn) |  | inconclusive: 79.4 µM [inhibitor, partial curve, poor fit]

SMILES | activity, negative = inhibition | Potency
CC(C)=C1Cc2ccccc2C1=O | inactive: 4.61% [at 102 µM] | 
C=CCS/C(N)=N\N=C\c1c(O)ccc2ccccc12 | inactive: 27.9% | 
CN(CC(=O)Nc1cccc(F)c1)C(=O)Cn1cnc2c1c(=O)n(C)c(=O)n2C |  | inconclusive: 3.55 µM [inhibitor, single point]
Cn1c(=O)c2c(nc(NCc3ccccc3)n2Cc2ccc(Cl)c(Cl)c2)n(C)c1=O | inactive: -40.7% | 
CC(NCc1cccs1)C(=O)Nc1cc(Cl)cc(Cl)c1 (stereo not drawn) |  | active: 5.01 µM
CCc1ccccc1NC(=O)C1CCCN1S(=O)(=O)c1ccc(-c2ccc(=O)[nH]n2)s1 (stereo not drawn) |  | inconclusive: 70.8 µM [inhibitor, single point]
Cc1ccc(C2Nc3cccc4cccc(c34)N2)cc1 |  | active: 10 µM
CCCSc1nc2c(c(=O)[nH]1)C(c1ccc(O)c(OCC)c1)CC(=O)N2 (stereo not drawn) | inactive: -0.172% | 
COc1ccc(-c2cn[nH]c2-c2ccc(OCC(=O)NN)cc2O)cc1 |  | inconclusive: 0.282 µM [inhibitor, partial curve, poor fit]
CCOC(=O)c1c(O)c2ccccc2n(-c2ccccc2)c1=O |  | inconclusive: 11.2 µM [inhibitor, partial curve, poor fit]
COc1ccc(N2CC(C(=O)Nc3ccccc3-c3nc(-c4ccc(C)cc4)no3)CC2=O)cc1 (stereo not drawn) | inactive: 4.71% | 
COc1cccc(CNC(=O)Cn2cc3c(n2)CCCC3)c1 |  | inconclusive: 39.8 µM [inhibitor, partial curve, poor fit]
O=C(CCc1nnc2ccc(N3CCCCC3)nn12)NCc1ccco1 | inactive: 34.5% [at 102 µM] | 
CC(C(=O)N1CCN(c2ccccc2)CC1)c1ccc([N+](=O)[O-])cc1 (stereo not drawn) |  | inconclusive: 56.2 µM [inhibitor, partial curve, poor fit]
COc1ccc(Cn2nnnc2C(c2ccccc2)N2CCN(C3CCCC3)CC2)cc1 (stereo not drawn) |  | inconclusive: 70.8 µM [inhibitor, partial curve, poor fit]
CC(C)(C)c1ccc(OCc2cc(=O)n3c4c(sc3n2)CCCC4)cc1 | inactive: 5.39% | 
CC(C)(C)c1ccc(-n2nc(C#N)c(Cl)cc2=O)cc1 |  | inconclusive: 39.8 µM [inhibitor, partial curve, poor fit]
Nn1c(Cc2ccccc2F)nnc1SCC(=O)N1CC(=O)Nc2ccccc21 |  | inconclusive: 39.8 µM [inhibitor, single point]
C=CCn1c(=N)n(CC(=O)c2ccc(Cl)cc2)c2ccccc21 | inactive: -4.02% [at 102 µM] | 
O=c1[nH]ccc2c(O)cccc12 |  | active: 25.1 µM
CC(=O)NC12CC3CC(C1)CC(C(=O)Nc1nc4ccc(S(C)(=O)=O)cc4s1)(C3)C2 |  | inconclusive: 89.1 µM [inhibitor, single point]
COc1cccc(-n2c(SCc3cc(=O)oc4cc(O)c(O)cc34)nc3ccccc3c2=O)c1 |  | inconclusive: 1.58 µM [inhibitor, full curve, poor fit]
